# Among all 340,000 compounds or so, about 20 (0.006%) were called active. Inconclusive means that the source gave no clear call. Such entries were picked first, then a sample of the others. Calls come from the whole dose curve; as a rule, active = well fitted inhibition curve with a large enough effect; inconclusive = small, poorly fitted or top-dose-only effect; inactive = no such curve, though single readings can be large or run the other way. A potency beside an inconclusive call is a rough fit, not a confirmed value.
# Target: Sphingomyelin phosphodiesterase (Homo sapiens) (UniProt P17405)
# Experiment: Inhibitors of Secretory Acid Sphingomyelinase (S-ASM): qHTS
# Details: placental ASM, HMU-PC fluorogenic substrate (series up to 57.5 µM), 60 min
# In short: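 HMU-PC0 cleavage (9 uM final) by human placental ASM, 60 min at 37 °C following 10 min compound exposure at RT; stopped at pH 10, fluorescence Ex 386/Em 447 nm.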
# Potency is the fitted concentration of half-maximal effect; tags give direction and shape of the fitted curve.
# Chain of UniProt P17405 (P17405 whole entry, looked up): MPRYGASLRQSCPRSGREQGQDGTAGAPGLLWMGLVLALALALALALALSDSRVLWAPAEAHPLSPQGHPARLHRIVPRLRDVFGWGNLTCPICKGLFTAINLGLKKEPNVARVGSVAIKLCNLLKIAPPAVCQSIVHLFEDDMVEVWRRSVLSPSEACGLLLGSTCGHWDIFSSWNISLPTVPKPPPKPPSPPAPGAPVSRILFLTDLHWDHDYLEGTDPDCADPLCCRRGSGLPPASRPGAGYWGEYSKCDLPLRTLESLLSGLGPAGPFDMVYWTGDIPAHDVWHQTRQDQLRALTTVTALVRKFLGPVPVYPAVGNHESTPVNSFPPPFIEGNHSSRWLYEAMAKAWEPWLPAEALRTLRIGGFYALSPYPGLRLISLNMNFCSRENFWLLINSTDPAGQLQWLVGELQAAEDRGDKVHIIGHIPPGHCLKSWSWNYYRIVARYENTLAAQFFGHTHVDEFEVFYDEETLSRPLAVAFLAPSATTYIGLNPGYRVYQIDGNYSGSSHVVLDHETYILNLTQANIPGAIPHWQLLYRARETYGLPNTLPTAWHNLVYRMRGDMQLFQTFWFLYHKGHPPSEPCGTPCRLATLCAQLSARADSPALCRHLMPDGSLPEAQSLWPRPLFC
row,Structure (SMILES),Potency
1,CSc1nc2nccc(-c3ccc(Oc4ccccc4)cc3)n2n1,"inconclusive: 89.1 µM [inhibitor, partial curve]"
2,CN(C)/C(=N\S(=O)(=O)c1ccccc1)c1ccc(Cl)cc1,inactive
3,C=CCSc1nc2c(C(=O)OCC)nnn2c2ccccc12,"inconclusive: 251 µM [inhibitor, partial curve, poor fit]"
4,CCN(CC)C(=O)[C@H]1C[C@H](CC(=O)NCc2cccc(C(F)(F)F)c2)C(=O)N2CCc3c([nH]c4cc(-c5ccco5)ccc34)[C@]12C,"inconclusive: 70.8 µM [inhibitor, partial curve, poor fit]"
5,O=c1[nH]c(C2CCN(S(=O)(=O)c3ccccc3C(F)(F)F)CC2)nc2c1nnn2Cc1ccccc1,"inconclusive: 355 µM [inhibitor, partial curve, poor fit]"
6,CCCN1C(=O)/C(=C\C=C2\N(CC)c3ccccc3C2(C)C)SC1=S,"inconclusive: 398 µM [inhibitor, partial curve, poor fit]"
7,Cc1cc(C)cc(NC(=O)c2cnn(-c3ccccc3)c2C2CCNCC2)c1,inactive
8,CCCOC(=O)c1c(NC(=O)C2C3C=CC(C3)C2C(=O)O)sc2c1CCC(C)C2 (stereo not drawn),"inconclusive: 316 µM [inhibitor, partial curve, poor fit]"
9,CCCCC1CCC(C(=O)Nc2ccc(N3CCOCC3)cc2N2CCOCC2)CC1 (stereo not drawn),"inconclusive: 63.1 µM [inhibitor, partial curve]"
10,COc1ccccc1NS(=O)(=O)c1cc(NC(=O)c2[nH]c(C)c(C(C)=O)c2C)ccc1N1CCOCC1,"inconclusive: 708 µM [inhibitor, partial curve, poor fit]"
11,CCC(C)C(NC(=O)C1CCC(C)CC1)C(=O)Nc1ccc(OC)cc1 (stereo not drawn),inactive
12,Cc1ccc(OCC(=O)N2CCN(c3nnc(-c4ccc(C)cc4)c4ccccc34)CC2)cc1,inactive
13,O=C(N/N=C/c1cc(Br)ccc1O)c1ccncc1,inactive
14,CCC1(C)Nc2ccccc2C(=O)N1O (stereo not drawn),inactive
15,CCCOc1ccc2c(c1)C(=NN=C(N)N)c1cc(OCCC)ccc1-2,"inconclusive: 100 µM [inhibitor, single point]"
16,O=[N+]([O-])c1ccc(N2CCN(S(=O)(=O)c3ccc(Cl)c(Cl)c3)CC2)cc1NCCN1CCOCC1,"inconclusive: 112 µM [inhibitor, partial curve, poor fit]"
17,CCOC(=O)N/N=C/c1cn(CCCOc2ccc(C)cc2)c2ccccc12,"inconclusive: 316 µM [inhibitor, partial curve, poor fit]"
18,Cc1cc(NC(=O)CCCSc2nc(-c3ccco3)cc(C(F)(F)F)n2)n(-c2ccccc2)n1,"inconclusive: 224 µM [inhibitor, partial curve, poor fit]"
